# Source: paper PMC9911399, “Two distinct binding modes provide the RNA-binding protein RbFox with extraordinary sequence specificity”
# Where a chain is given by its changes, count along the chain named. The list shows a part of the results.
# T1: RBFOX1 RRM RbFoxmut (Fox-RRM*) (Homo sapiens, UniProt Q9NWB1 109-208, R118D;E147R;N151S;E152T)
# T1 sequence: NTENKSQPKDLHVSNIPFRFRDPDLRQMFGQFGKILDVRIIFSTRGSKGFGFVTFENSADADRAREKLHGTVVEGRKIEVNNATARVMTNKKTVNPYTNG
# B1: CCUACUG (DNA:RNA)
# RNA: GGGAGACCGGAAUUCAGAUUGUCCCCUACUGUUAAAUCCCGUCGUAGCCACCA
# DNA 1: CAATCTGAATTCCGGTCTCCC
# DNA 2: TGGTGGCTACGACGGGATT
# B2: GCCAGGC (DNA:RNA)
# RNA: B1 RNA with C25G, U27C, C29G, U30G, G31C
# DNA 1: CAATCTGAATTCCGGTCTCCC
# DNA 2: TGGTGGCTACGACGGGATT
# B3: UCGUCCU (DNA:RNA)
# RNA: B1 RNA with C25U, U27G, A28U, U30C, G31U
# DNA 1: CAATCTGAATTCCGGTCTCCC
# DNA 2: TGGTGGCTACGACGGGATT
# B4: CAUUGGC (DNA:RNA)
# RNA: B1 RNA with C26A, A28U, C29G, U30G, G31C
# DNA 1: CAATCTGAATTCCGGTCTCCC
# DNA 2: TGGTGGCTACGACGGGATT
# B5: UCUAUGG (DNA:RNA)
# RNA: B1 RNA with C25U, C29U, U30G
# DNA 1: CAATCTGAATTCCGGTCTCCC
# DNA 2: TGGTGGCTACGACGGGATT
# B6: AUCUUAC (DNA:RNA)
# RNA: GGGAGACCGGAAUUCAGAUUGUCCAUCUUACUUAAAUCCCGUCGUAGCCACCA
# DNA 1: CAATCTGAATTCCGGTCTCCC
# DNA 2: TGGTGGCTACGACGGGATT
# B7: GAUUCGA (DNA:RNA)
# RNA: B1 RNA with C25G, C26A, A28U, U30G, G31A
# DNA 1: CAATCTGAATTCCGGTCTCCC
# DNA 2: TGGTGGCTACGACGGGATT
# B8: UUUGAUG (DNA:RNA)
# RNA: B1 RNA with C25U, C26U, A28G, C29A
# DNA 1: CAATCTGAATTCCGGTCTCCC
# DNA 2: TGGTGGCTACGACGGGATT
# B9: CUAGCUC (DNA:RNA)
# RNA: B1 RNA with C26U, U27A, A28G, G31C
# DNA 1: CAATCTGAATTCCGGTCTCCC
# DNA 2: TGGTGGCTACGACGGGATT
# B10: GCGCAUG (DNA:RNA)
# RNA: B1 RNA with C25G, U27G, A28C, C29A
# DNA 1: CAATCTGAATTCCGGTCTCCC
# DNA 2: TGGTGGCTACGACGGGATT
# B11: ACUUCAA (DNA:RNA)
# RNA: B6 RNA with U26C, C27U, U29C, C31A
# DNA 1: CAATCTGAATTCCGGTCTCCC
# DNA 2: TGGTGGCTACGACGGGATT
# B12: UCCGCCA (DNA:RNA)
# RNA: B1 RNA with C25U, U27C, A28G, U30C, G31A
# DNA 1: CAATCTGAATTCCGGTCTCCC
# DNA 2: TGGTGGCTACGACGGGATT
# B13: GCGAGGA (DNA:RNA)
# RNA: B1 RNA with C25G, U27G, C29G, U30G, G31A
# DNA 1: CAATCTGAATTCCGGTCTCCC
# DNA 2: TGGTGGCTACGACGGGATT
# B14: GCACUUU (DNA:RNA)
# RNA: B1 RNA with C25G, U27A, A28C, C29U, G31U
# DNA 1: CAATCTGAATTCCGGTCTCCC
# DNA 2: TGGTGGCTACGACGGGATT
# B15: AGGAGGU (DNA:RNA)
# RNA: B6 RNA with U26G, C27G, U28A, U29G, A30G, C31U
# DNA 1: CAATCTGAATTCCGGTCTCCC
# DNA 2: TGGTGGCTACGACGGGATT
# B16: UGCGAAU (DNA:RNA)
# RNA: B6 RNA with A25U, U26G, U28G, U29A, C31U
# DNA 1: CAATCTGAATTCCGGTCTCCC
# DNA 2: TGGTGGCTACGACGGGATT
# B17: AGUCAUU (DNA:RNA)
# RNA: B1 RNA with C25A, C26G, A28C, C29A, G31U
# DNA 1: CAATCTGAATTCCGGTCTCCC
# DNA 2: TGGTGGCTACGACGGGATT
# B18: AACUCAG (DNA:RNA)
# RNA: B6 RNA with U26A, U29C, C31G
# DNA 1: CAATCTGAATTCCGGTCTCCC
# DNA 2: TGGTGGCTACGACGGGATT
# B19: AAUGCGC (DNA:RNA)
# RNA: B6 RNA with U26A, C27U, U28G, U29C, A30G
# DNA 1: CAATCTGAATTCCGGTCTCCC
# DNA 2: TGGTGGCTACGACGGGATT
# B20: UUCGAUC (DNA:RNA)
# RNA: B6 RNA with A25U, U28G, U29A, A30U
# DNA 1: CAATCTGAATTCCGGTCTCCC
# DNA 2: TGGTGGCTACGACGGGATT
# Molecular target: T1, RBFOX1 RRM RbFoxmut (Fox-RRM*)
# Test: EMSA; HiTS-Eq, 1 nM pool, 10 min; buffer printed only for the single-RNA assays: 10 mM Tris pH 7.5, 150 mM NaCl, 3.4 mM EDTA, 0.001% NP-40, 30 C
# Conditions: tags: His6 N-terminal (pET28a); label: 5' 32P
# Summary of the method: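 Purified RbFox RRM, wild type or mutant, was incubated for 10 min in 50 µL with 1 nM of a 5′-radiolabelled RNA pool carrying 7 randomized nucleotides, whose flanks were annealed to DNA oligonucleotides, over a series of increasing protein concentrations. Unbound RNA was resolved on 8% native PAGE, cut out, reverse-transcribed, barcoded by PCR and sequenced on an Illumina HiSeq 2500. Relative association constants were derived from changes in read counts for each RNA species versus the control reaction and normalised to the cognate motif.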
row,Binder,binding signal
1,B1,0.126 KA relative to UGCAUGU
2,B2,0.0762 KA relative to UGCAUGU
3,B3,0.0951 KA relative to UGCAUGU
4,B4,0.134 KA relative to UGCAUGU
5,B5,0.121 KA relative to UGCAUGU
6,B6,0.12 KA relative to UGCAUGU
7,B7,0.167 KA relative to UGCAUGU
8,B8,0.125 KA relative to UGCAUGU
9,B9,0.0876 KA relative to UGCAUGU
10,B10,1.33 KA relative to UGCAUGU
11,B11,0.0738 KA relative to UGCAUGU
12,B12,0.0799 KA relative to UGCAUGU
13,B13,0.0692 KA relative to UGCAUGU
14,B14,0.0764 KA relative to UGCAUGU
15,B15,0.121 KA relative to UGCAUGU
16,B16,0.115 KA relative to UGCAUGU
17,B17,0.0793 KA relative to UGCAUGU
18,B18,0.0765 KA relative to UGCAUGU
19,B19,0.0945 KA relative to UGCAUGU
20,B20,0.0569 KA relative to UGCAUGU
